Results are given in words; binding and its absence hold for the method and conditions named. Binding seen in cells or lysates may run through a third protein. Some entries that bind do so weakly or less than the wild type. For part of these data: Sequences can lack the tags named with a protein.

Experiment [1] concerns the target T1, GST‐STRA8 fusion protein (mouse) (UniProt P70278).
T1 sequence: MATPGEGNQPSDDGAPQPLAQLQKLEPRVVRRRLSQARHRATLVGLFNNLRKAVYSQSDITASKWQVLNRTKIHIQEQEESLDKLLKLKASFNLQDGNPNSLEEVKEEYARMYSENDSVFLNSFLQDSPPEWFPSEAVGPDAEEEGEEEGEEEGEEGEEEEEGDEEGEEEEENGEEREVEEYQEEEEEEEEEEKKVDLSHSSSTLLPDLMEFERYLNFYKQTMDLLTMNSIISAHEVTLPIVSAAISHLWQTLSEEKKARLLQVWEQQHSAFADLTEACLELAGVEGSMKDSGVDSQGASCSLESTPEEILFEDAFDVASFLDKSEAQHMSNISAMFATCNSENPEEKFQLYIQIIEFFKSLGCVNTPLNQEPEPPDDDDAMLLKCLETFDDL
Kind of experiment: pull-down; GST or GST fusion proteins on glutathione‐agarose beads incubated 2 h at 4°C with pre-cleared lysates (500 µg‐1 mg) of transfected HEK293T cells or P10 dpp male germ cells; 25 mmol/L Tris‐HCl pH 7.5, 150 mmol/L NaCl, 0.5% Triton‐X100, 1 mmol/L EDTA, 5% glycerol; Western blot; only the target purified.

The target in experiment [2] is T2, endogenous STRA8 of P10 dpp male germ cells (mouse (endogenous in P10 dpp male germ cells)) (UniProt P70278).
T2 sequence: T1 sequence
Kind of experiment: co-IP; endogenous proteins, nuclear extracts of P10 dpp male germ cells; anti‐STRA8 antibody on Dynabeads protein G.

Experiment [3] concerns the target T3, GST‐HLH‐only‐STRA8 (mouse) (UniProt P70278).
T3 sequence: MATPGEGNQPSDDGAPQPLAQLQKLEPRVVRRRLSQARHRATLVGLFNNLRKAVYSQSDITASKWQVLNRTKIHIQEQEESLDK
In words: pull-down; GST or GST fusion proteins on glutathione‐agarose beads incubated 2 h at 4°C with pre-cleared lysates (500 µg‐1 mg) of transfected HEK293T cells or P10 dpp male germ cells; 25 mmol/L Tris‐HCl pH 7.5, 150 mmol/L NaCl, 0.5% Triton‐X100, 1 mmol/L EDTA, 5% glycerol; Western blot; only the target purified.

Experiment [4] deals with T4, GST‐ΔHLH‐STRA8 (mouse) (UniProt P70278).
T4 sequence: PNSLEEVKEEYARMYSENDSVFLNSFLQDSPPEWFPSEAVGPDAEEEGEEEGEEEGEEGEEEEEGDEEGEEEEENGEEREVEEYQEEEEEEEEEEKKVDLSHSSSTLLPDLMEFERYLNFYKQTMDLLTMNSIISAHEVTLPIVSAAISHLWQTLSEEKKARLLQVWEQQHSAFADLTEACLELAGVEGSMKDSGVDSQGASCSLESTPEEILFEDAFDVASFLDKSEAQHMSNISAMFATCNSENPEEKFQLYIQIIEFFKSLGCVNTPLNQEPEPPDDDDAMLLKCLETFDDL
The experiment is described as above.

Experiment [5] addresses T5, Myc‐STRA8 (pcDNA3‐Myc‐Stra8) in P19EC cells (mouse) (UniProt P70278).
T5 sequence: T1 sequence
In words: co-IP; total lysates of transfected HEK293T cells or of transfected P19EC cells treated with 1 µmol/L ATRA for 24 h; anti‐Myc or anti‐FLAG antibody on Dynabeads protein G, 2 h at 4°C; 50 mmol/L Tris‐HCl pH 7.6, 150 mmol/L NaCl, 2 mmol/L EDTA, 0.5% NP‐40, 3% glycerol.

Experiment [6] deals with T6, Myc‐SOHLH1 (pcDNA3‐Myc‐SOHLH1) (mouse) (UniProt Q6IUP1).
T6 sequence: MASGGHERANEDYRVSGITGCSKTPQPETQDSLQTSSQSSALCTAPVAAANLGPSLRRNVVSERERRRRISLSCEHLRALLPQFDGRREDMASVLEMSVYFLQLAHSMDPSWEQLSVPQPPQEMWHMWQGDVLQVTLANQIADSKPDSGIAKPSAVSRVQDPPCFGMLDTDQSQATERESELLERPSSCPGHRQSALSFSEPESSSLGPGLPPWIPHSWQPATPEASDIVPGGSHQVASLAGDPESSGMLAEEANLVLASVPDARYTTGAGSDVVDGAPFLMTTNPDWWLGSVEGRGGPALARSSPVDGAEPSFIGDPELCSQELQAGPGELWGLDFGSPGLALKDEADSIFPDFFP
The experiment is described as above.

Experiment [7] addresses T7, Myc‐ΔHLH‐STRA8 (mouse) (UniProt P70278).
T7 sequence: T4 sequence
The description is as above.

Experiment [8] deals with T8, Myc‐HLH‐only‐STRA8 (mouse) (UniProt P70278).
T8 sequence: T3 sequence
Described as above.

Experiment [9] deals with T9, Myc‐STRA8 (pcDNA3‐Myc‐STRA8) in HEK293T cells (mouse) (UniProt P70278).
T9 sequence: T1 sequence
Described as above.

B1: Myc‐SOHLH1 (pcDNA3‐Myc‐SOHLH1) (protein, UniProt Q6IUP1 1-357)
chain: T6 sequence
For B1, the binding entry in [1] was “binds”.

B2: endogenous SOHLH1 of P10 dpp male germ cells (protein, UniProt Q6IUP1 1-357)
chain: T6 sequence
With B2, the binding entry in experiment [1] and in [2] was “binds” each time.

B3: Myc‐STRA8 (pcDNA3‐Myc‐STRA8) in HEK293T cells (protein, UniProt P70278 1-393)
chain: T1 sequence
Regarding B3, the figures for the binding entry in [1], in [3] and in experiment [4] were “binds”, “binds” and “no binding”, respectively.

B4: endogenous STRA8 of P19EC cells treated with ATRA (protein, UniProt P70278 1-393)
chain: T1 sequence
As to B4, the binding entry in experiment [5] is “binds”.

B5: STRA8 without tag (pCMV‐STRA8) in HEK293T cells (protein, UniProt P70278 1-393)
chain: T1 sequence
With B5, the binding entry in experiment [6] is “binds”.

B6: GFP‐STRA8 fusion protein (protein, UniProt P70278 1-393)
chain: T1 sequence
On to B6, for which the results for the binding entry in [7], in experiment [8] and in experiment [9] were “no binding”, “binds” and “binds”, respectively.

B7: endogenous STRA8 of P10 dpp male germ cells (protein, UniProt P70278 1-393)
chain: T1 sequence
B7: the binding result in [1] is recorded as “binds”.

The record behind these values is article PMC7810945.
